Experimental findings from PMC3547949, “The Immunosuppressive Agent Mizoribine Monophosphate Is an Inhibitor of the Human RNA Capping Enzyme” (PLoS ONE, 2013) are described below.

The subject of the test is HEK 293T cells. As to the kind of experiment: Inhibition of mRNA cap formation in cells (firefly luciferase reporter). To be noted: 40 µM and 120 µM mizoribine; versus HCE-K294A-HA, GFP and control cells.

Take `NC(=O)c1ncn([C@@H]2O[C@H](CO)[C@@H](O)[C@H]2O)c1O` [mizoribine]: the “reporter gene translation in cells over-expressing HCE-WT-HA” value is recorded as “partially rescued”.
